Source: the supplement of paper PMC12217912
The other results are listed elsewhere or left out. The full chains were built here from the parent and the listed change. Inactive controls read about 0.05.

B1: TEV protease; numbered along this chain (parent)
chain: MGESLFKGPRDYNPISSSICHLTNESDGHTTSLYGIGFGPFIITNKHLFRRNNGTLVVQSLHGVFKVKDTTTLQQHLVDGRDMIIIRMPKDFPPFPQKLKFREPQREERICLVTTNFQTKSMSSMVSDTSCTFPSGDGIFWKHWIQTKDGQCGSPLVSTRDGFIVGIHSASNFTNTNNYFTSVPKNFMELLTNQEAQQWVSGWRLNADSVLWGGHKVFMVKPEEPFQPVKEATQL

Variants of: B1
Assay: raw area under fraction-flipped curve 0-4 h after induction (AUC4h, not background-subtracted), DNA-recorder readout of cleavage of the substrate (dimensionless); higher = more cleavage of the substrate by the protease variant
Settings: temperature: 34 °C; time window: 0-4 h after rhamnose induction
Description: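 In vivo DNA recorder in E. coli TOP10(DE3) ΔrhaA at 34 °C. Each TEVp single-site mutant (parent TEVp 0) is paired with a single-site variant of the 7-mer TEVs (canonical ENLYFQ|S). The substrate sits between flexible linkers in a Bxb1-sfGFP-TEVs-SsrA fusion, so cleavage stabilises Bxb1 and speeds flipping of a recombination array, read by NGS. The value is the raw area under the fraction-flipped curve over 0-4 h after rhamnose induction (AUC4h), with ≥20 reads per time point. It is not background-subtracted; inactive controls average about 0.047.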
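Also: Bxb1 expression induced with 0.2% (w/v) L-rhamnose at OD600 near 0.5, cultures sampled hourly, flipped fraction per protease–substrate barcode pair counted by paired-end Illumina sequencing.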

## MGESLFKGPRDYNPISSSICHLTNESDGHTTRLYGIGFGPFIITNKHLFRRNNGTLVVQSLHGVFKVKDTTTLQQHLVDGRDMIIIRMPKDFPPFPQKLKFREPQREERICLVTTNFQTKSMSSMVSDTSCTFPSGDGIFWKHWIQTKDGQCGSPLVSTRDGFIVGIHSASNFTNTNNYFTSVPKNFMELLTNQEAQQWVSGWRLNADSVLWGGHKVFMVKPEEPFQPVKEATQL [S32R]
  area with substrate ENAYFQS: 0.0617
  area with substrate ENCYFQS: 0.0663
  area with substrate ENDYFQS: 0.0626
  area with substrate ENEYFQS: 0.064
  area with substrate ENFYFQS: 0.0701
  area with substrate ENGYFQS: 0.0599
  area with substrate ENHYFQS: 0.0725
  area with substrate ENIYFQS: 0.0942
  area with substrate ENKYFQS: 0.0859
  area with substrate ENNYFQS: 0.0649
  area with substrate ENPYFQS: 0.0639
  area with substrate ENQYFQS: 0.0557
  area with substrate ENSYFQS: 0.0595
  area with substrate ENTYFQS: 0.0667
  area with substrate ENVYFQS: 0.0748
  area with substrate ENYYFQS: 0.0497

## MGESLFKGPRDYNPISSSICHLTNESDGHTTWLYGIGFGPFIITNKHLFRRNNGTLVVQSLHGVFKVKDTTTLQQHLVDGRDMIIIRMPKDFPPFPQKLKFREPQREERICLVTTNFQTKSMSSMVSDTSCTFPSGDGIFWKHWIQTKDGQCGSPLVSTRDGFIVGIHSASNFTNTNNYFTSVPKNFMELLTNQEAQQWVSGWRLNADSVLWGGHKVFMVKPEEPFQPVKEATQL [S32W]
  area with substrate ENAYFQS: 0.0551
  area with substrate ENCYFQS: 0.0599
  area with substrate ENDYFQS: 0.0606
  area with substrate ENEYFQS: 0.0457
  area with substrate ENHYFQS: 0.0738
  area with substrate ENIYFQS: 0.11
  area with substrate ENMYFQS: 0.0884
  area with substrate ENNYFQS: 0.0705
  area with substrate ENPYFQS: 0.0518
  area with substrate ENQYFQS: 0.0534
  area with substrate ENRYFQS: 0.0605
  area with substrate ENSYFQS: 0.0584
  area with substrate ENTYFQS: 0.0681
  area with substrate ENVYFQS: 0.0679
  area with substrate ENYYFQS: 0.0577

## MGESLFKGPRDYNPISSSICHLTNESDGHTTYLYGIGFGPFIITNKHLFRRNNGTLVVQSLHGVFKVKDTTTLQQHLVDGRDMIIIRMPKDFPPFPQKLKFREPQREERICLVTTNFQTKSMSSMVSDTSCTFPSGDGIFWKHWIQTKDGQCGSPLVSTRDGFIVGIHSASNFTNTNNYFTSVPKNFMELLTNQEAQQWVSGWRLNADSVLWGGHKVFMVKPEEPFQPVKEATQL [S32Y]
  area with substrate ENAYFQS: 0.0537
  area with substrate ENCYFQS: 0.0587
  area with substrate ENDYFQS: 0.057
  area with substrate ENEYFQS: 0.0609
  area with substrate ENGYFQS: 0.0663
  area with substrate ENHYFQS: 0.0533
  area with substrate ENIYFQS: 0.112
  area with substrate ENKYFQS: 0.058
  area with substrate ENPYFQS: 0.0523
  area with substrate ENQYFQS: 0.057
  area with substrate ENSYFQS: 0.0612
  area with substrate ENTYFQS: 0.0665
  area with substrate ENVYFQS: 0.0841
  area with substrate ENWYFQS: 0.0051

## MGESLFKGPRDYNPISSSICHLTNESDGHTTSNYGIGFGPFIITNKHLFRRNNGTLVVQSLHGVFKVKDTTTLQQHLVDGRDMIIIRMPKDFPPFPQKLKFREPQREERICLVTTNFQTKSMSSMVSDTSCTFPSGDGIFWKHWIQTKDGQCGSPLVSTRDGFIVGIHSASNFTNTNNYFTSVPKNFMELLTNQEAQQWVSGWRLNADSVLWGGHKVFMVKPEEPFQPVKEATQL [L33N]
  area with substrate ENAYFQS: 0.0581
  area with substrate ENCYFQS: 0.0618
  area with substrate ENDYFQS: 0.0731
  area with substrate ENEYFQS: 0.0538
  area with substrate ENFYFQS: 0.0536
  area with substrate ENGYFQS: 0.0693
  area with substrate ENHYFQS: 0.0643
  area with substrate ENIYFQS: 0.0971
  area with substrate ENKYFQS: 0.0768
  area with substrate ENNYFQS: 0.0528
  area with substrate ENPYFQS: 0.0443
  area with substrate ENQYFQS: 0.0546
  area with substrate ENTYFQS: 0.063
  area with substrate ENVYFQS: 0.0774
  area with substrate ENWYFQS: 0.0645
  area with substrate ENYYFQS: 0.0629

## MGESLFKGPRDYNPISSSICHLTNESDGHTTSLYGIGFAPFIITNKHLFRRNNGTLVVQSLHGVFKVKDTTTLQQHLVDGRDMIIIRMPKDFPPFPQKLKFREPQREERICLVTTNFQTKSMSSMVSDTSCTFPSGDGIFWKHWIQTKDGQCGSPLVSTRDGFIVGIHSASNFTNTNNYFTSVPKNFMELLTNQEAQQWVSGWRLNADSVLWGGHKVFMVKPEEPFQPVKEATQL [G39A]
  area with substrate ENAYFQS: 0.0509
  area with substrate ENCYFQS: 0.0394
  area with substrate ENDYFQS: 0.0529
  area with substrate ENEYFQS: 0.0441
  area with substrate ENGYFQS: 0.0573
  area with substrate ENHYFQS: 0.0386
  area with substrate ENIYFQS: 0.0526
  area with substrate ENKYFQS: 0.0531
  area with substrate ENNYFQS: 0.019
  area with substrate ENPYFQS: 0.04
  area with substrate ENQYFQS: 0.0433
  area with substrate ENSYFQS: 0.0434
  area with substrate ENTYFQS: 0.0352
  area with substrate ENVYFQS: 0.0486

## MGESLFKGPRDYNPISSSICHLTNESDGHTTSLYGIGFGCFIITNKHLFRRNNGTLVVQSLHGVFKVKDTTTLQQHLVDGRDMIIIRMPKDFPPFPQKLKFREPQREERICLVTTNFQTKSMSSMVSDTSCTFPSGDGIFWKHWIQTKDGQCGSPLVSTRDGFIVGIHSASNFTNTNNYFTSVPKNFMELLTNQEAQQWVSGWRLNADSVLWGGHKVFMVKPEEPFQPVKEATQL [P40C]
  area with substrate ENAYFQS: 0.0651
  area with substrate ENCYFQS: 0.0629
  area with substrate ENDYFQS: 0.0764
  area with substrate ENEYFQS: 0.0582
  area with substrate ENFYFQS: 0.074
  area with substrate ENGYFQS: 0.0532
  area with substrate ENHYFQS: 0.0452
  area with substrate ENIYFQS: 0.102
  area with substrate ENKYFQS: 0.0654
  area with substrate ENMYFQS: 0.0755
  area with substrate ENNYFQS: 0.0495
  area with substrate ENPYFQS: 0.0374
  area with substrate ENQYFQS: 0.0619
  area with substrate ENRYFQS: 0.0603
  area with substrate ENSYFQS: 0.0563
  area with substrate ENTYFQS: 0.0536
  area with substrate ENVYFQS: 0.0796

## MGESLFKGPRDYNPISSSICHLTNESDGHTTSLYGIGFGDFIITNKHLFRRNNGTLVVQSLHGVFKVKDTTTLQQHLVDGRDMIIIRMPKDFPPFPQKLKFREPQREERICLVTTNFQTKSMSSMVSDTSCTFPSGDGIFWKHWIQTKDGQCGSPLVSTRDGFIVGIHSASNFTNTNNYFTSVPKNFMELLTNQEAQQWVSGWRLNADSVLWGGHKVFMVKPEEPFQPVKEATQL [P40D]
  area with substrate ENAYFQS: 0.0712
  area with substrate ENDYFQS: 0.0511
  area with substrate ENEYFQS: 0.0648
  area with substrate ENFYFQS: 0.0563
  area with substrate ENGYFQS: 0.0626
  area with substrate ENHYFQS: 0.0479
  area with substrate ENKYFQS: 0.0629
  area with substrate ENMYFQS: 0.0834
  area with substrate ENQYFQS: 0.0893
  area with substrate ENRYFQS: 0.0722
  area with substrate ENWYFQS: 0.054
  area with substrate ENYYFQS: 0.0518

## MGESLFKGPRDYNPISSSICHLTNESDGHTTSLYGIGFGFFIITNKHLFRRNNGTLVVQSLHGVFKVKDTTTLQQHLVDGRDMIIIRMPKDFPPFPQKLKFREPQREERICLVTTNFQTKSMSSMVSDTSCTFPSGDGIFWKHWIQTKDGQCGSPLVSTRDGFIVGIHSASNFTNTNNYFTSVPKNFMELLTNQEAQQWVSGWRLNADSVLWGGHKVFMVKPEEPFQPVKEATQL [P40F]
  area with substrate ENAYFQS: 0.051
  area with substrate ENCYFQS: 0.0572
  area with substrate ENDYFQS: 0.0599
  area with substrate ENEYFQS: 0.0678
  area with substrate ENFYFQS: 0.049
  area with substrate ENGYFQS: 0.0587
  area with substrate ENHYFQS: 0.0491
  area with substrate ENIYFQS: 0.102
  area with substrate ENKYFQS: 0.048
  area with substrate ENMYFQS: 0.0585
  area with substrate ENNYFQS: 0.0503
  area with substrate ENPYFQS: 0.0554
  area with substrate ENQYFQS: 0.058
  area with substrate ENRYFQS: 0.0592
  area with substrate ENSYFQS: 0.0544
  area with substrate ENTYFQS: 0.0614
  area with substrate ENVYFQS: 0.0689

## MGESLFKGPRDYNPISSSICHLTNESDGHTTSLYGIGFGGFIITNKHLFRRNNGTLVVQSLHGVFKVKDTTTLQQHLVDGRDMIIIRMPKDFPPFPQKLKFREPQREERICLVTTNFQTKSMSSMVSDTSCTFPSGDGIFWKHWIQTKDGQCGSPLVSTRDGFIVGIHSASNFTNTNNYFTSVPKNFMELLTNQEAQQWVSGWRLNADSVLWGGHKVFMVKPEEPFQPVKEATQL [P40G]
  area with substrate ENAYFQS: 0.0592
  area with substrate ENCYFQS: 0.0498
  area with substrate ENDYFQS: 0.0449
  area with substrate ENEYFQS: 0.0684
  area with substrate ENHYFQS: 0.0602
  area with substrate ENNYFQS: 0.059
  area with substrate ENPYFQS: 0.0566
  area with substrate ENQYFQS: 0.0606
  area with substrate ENRYFQS: 0.0601
  area with substrate ENSYFQS: 0.0677
  area with substrate ENTYFQS: 0.0579
  area with substrate ENVYFQS: 0.0686
